# Results reported in the BET-seq Pho4 binding data (Le et al. 2018).
# Some of the results follow. These are noisy estimates, calculated here from bound and input reads.
# Target: T1, Pho4 (S. cerevisiae) (UniProt P07270)
# T1 sequence: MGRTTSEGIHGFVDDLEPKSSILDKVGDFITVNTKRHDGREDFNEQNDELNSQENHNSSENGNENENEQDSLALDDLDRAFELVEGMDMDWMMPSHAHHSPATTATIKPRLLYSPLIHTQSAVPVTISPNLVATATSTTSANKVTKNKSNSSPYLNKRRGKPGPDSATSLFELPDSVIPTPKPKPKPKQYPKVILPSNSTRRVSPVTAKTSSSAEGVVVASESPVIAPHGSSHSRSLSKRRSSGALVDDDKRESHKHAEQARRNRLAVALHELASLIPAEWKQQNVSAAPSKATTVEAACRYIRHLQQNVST
# Assay: relative binding free energy (BET-seq); higher = weaker binding
# Settings: reference: library average
row,Sequence,relative binding free energy [kcal/mol]
1,TTTATCACGTGGGCCG,0.13
2,AAAATCACGTGGTTAG,0.04
3,CGTGTCACGTGGACGT,0.03
4,TGTTACACGTGGGGTG,-0.11
5,ATTGTCACGTGTGTCT,0.14
6,TTAGTCACGTGTAACA,0.18
7,GTAGTCACGTGATGAA,0.24
8,ATTTGCACGTGTTCGG,-0.03
9,TTGTGCACGTGTATAG,-0.09
10,AGGTGCACGTGTCGTG,0.04
11,GTTTACACGTGGGGGG,0.09
12,GTATGCACGTGGATGA,-0.07
13,ATTTTCACGTGTTACA,0.21
14,CGGGGCACGTGCTGTA,-0.23
15,TGGGCCACGTGTGCTT,0.07
16,AATTTCACGTGTAAAG,0.22
17,ATTATCACGTGAGTTT,0.35
18,GTGGGCACGTGCGGTA,-0.14
19,AGGCACACGTGTGGCG,0.14
20,GCGGTCACGTGTTGGT,0.15
21,TTTCGCACGTGAGGAG,0.07
22,GAAGACACGTGGAGGT,-0.06
23,TGAGTCACGTGTGTAT,0.06
24,TTCCTCACGTGTGGGA,0.27
25,TATTACACGTGAGGGC,0.44

row,Sequence,relative binding free energy [kcal/mol]
1,AGATGCACGTGTCGGG,-0.07
2,GTTTTCACGTGATTAA,0.26
3,AGCGGCACGTGTGTAG,-0.09
4,TAAGGCACGTGCGTTT,-0.04
5,TTTTGCACGTGGCGGC,-0.05
6,TTGGACACGTGCAGTT,0.07
7,CGGGGCACGTGGCCTG,-0.18
8,TTTATCACGTGATTTT,0.37
9,TAGGTCACGTGATCTT,0.22
10,AGCGGCACGTGAGTCT,0.31
11,TTGTTCACGTGCGGCT,0.32
12,TGTGACACGTGAAAGG,0.14
13,TGTGGCACGTGTGTAC,-0.16
14,TGTATCACGTGAGGAT,0.44
15,TCATGCACGTGGTTAG,-0.17
16,TTTTCCACGTGAAGTG,0.16
17,GTGCTCACGTGCGGAG,0.18
18,TGTTTCACGTGCTGGT,0.21
19,TAGTTCACGTGTATTC,0.25
20,ACAGTCACGTGTCGGT,0.16
21,TATGACACGTGGGAGG,-0.22
22,TCGGGCACGTGTAGTC,0.02
23,TTGATCACGTGAGCTG,0.23
24,ATTAGCACGTGGTCAA,-0.07
25,GATTACACGTGGTCGT,0.09

row,Sequence,relative binding free energy [kcal/mol]
1,AGCGTCACGTGAGTGT,0.1
2,TAGATCACGTGTTCGG,0.08
3,TGATTCACGTGTCTAG,0.31
4,TATGGCACGTGAGGTA,0.04
5,TTGAGCACGTGGAGCG,-0.05
6,TAAGTCACGTGATTTG,0.38
7,TAGTACACGTGTGTTC,0.12
8,TACGGCACGTGGTGTA,-0.25
9,TGGAGCACGTGAGTAT,0.23
10,TGAGGCACGTGATTGA,0.04
11,TTCTGCACGTGTTCGT,-0.1
12,CGTAGCACGTGTTTTT,-0.1
13,TAGCGCACGTGCTGTG,-0.08
14,AGGTTCACGTGAAGAG,0.23
15,GTGAGCACGTGGCTAG,-0.16
16,ATTGCCACGTGAATGG,0.1
17,GGTTGCACGTGCTATG,-0.08
18,TGTATCACGTGGGGCT,-0.05
19,TTTTGCACGTGCGATG,0.03
20,TGGATCACGTGATCTT,0.25
21,TTGAGCACGTGTTAGG,-0.1
22,TGAATCACGTGAGGGT,0.35
23,TTGTGCACGTGGATTC,0.08
24,CTGAGCACGTGCGGGT,-0.11
25,GATATCACGTGATTTG,0.38

row,Sequence,relative binding free energy [kcal/mol]
1,TTAGGCACGTGCGCTA,-0.11
2,ACGTACACGTGGGTTG,-0.16
3,ACTGTCACGTGTTGGT,0.07
4,ATTTCCACGTGGGGGA,-0.21
5,TAATTCACGTGAGGGT,0.45
6,TTAGGCACGTGTGGTC,0.03
7,ATGAGCACGTGATTAT,0
8,AGTCACACGTGATGGG,0.05
9,ACGTGCACGTGGTGCG,-0.22
10,TTCGGCACGTGAGTTT,0.22
11,GAACTCACGTGGTGGG,0.17
12,TGTTTCACGTGGGTCT,0.05
13,ATATGCACGTGTTCGG,0
14,TCGTTCACGTGAGGAG,0.29
15,TGGATCACGTGTTGTT,0.13
16,TATTGCACGTGTTCGA,0
17,AAAGTCACGTGTGGTA,0.05
18,AAACGCACGTGGGGGT,-0.22
19,ATTAGCACGTGGATTG,-0.12
20,TGATACACGTGATTAG,0.23
21,TATTGCACGTGTTCTA,0
22,ATTATCACGTGTAGGT,0.16
23,GGGGTCACGTGTAAGG,0.26
24,TTGTTCACGTGGACTG,0.3
25,TGTATCACGTGGTGAA,0.11

row,Sequence,relative binding free energy [kcal/mol]
1,TAGCTCACGTGGTTTT,0.09
2,TGGATCACGTGATAGC,0.34
3,AGATACACGTGTATTG,-0.03
4,TCGTCCACGTGGGCTT,0.16
5,CGTTTCACGTGGAGTG,0.23
6,TGCGGCACGTGATTAT,-0.14
7,GGATTCACGTGTTTAT,0.27
8,GGTATCACGTGTTATC,0.26
9,AGTTTCACGTGACTTG,0.29
10,TTGTACACGTGACGGG,0.19
11,GTTCTCACGTGTTTTT,0.27
12,GGTATCACGTGGATGA,0.05
13,GGGTACACGTGTGATT,0.22
14,GGGCTCACGTGATAGA,0.51
15,TTGTACACGTGCTATT,-0.12
16,AATAGCACGTGGTGTG,-0.3
17,CTTAGCACGTGTTATT,-0.11
18,ACGGTCACGTGTGTCG,0.05
19,TAATTCACGTGACATT,0.37
20,ATTGACACGTGGGAGG,-0.11
21,GTGCTCACGTGGGTGG,0.22
22,GGTGTCACGTGGACCG,0.12
23,TGGTGCACGTGCGATA,-0.11
24,TAGAGCACGTGCAGGG,-0.16
25,TGCGGCACGTGTGGCT,-0.15

row,Sequence,relative binding free energy [kcal/mol]
1,TGGTGCACGTGTTTTT,0.15
2,AGACGCACGTGAGAGG,0.15
3,GGGTGCACGTGGATGA,-0.01
4,TCATACACGTGTTATT,-0.03
5,GGTATCACGTGCAGGG,0.2
6,TGATTCACGTGCGGTT,0.4
7,AGGAACACGTGATTGG,0.17
8,GGGAGCACGTGAAATG,0.2
9,TGAGTCACGTGTTTGA,0.05
10,GGTCTCACGTGGCAGG,0.02
11,ACTTGCACGTGAGGGT,0.13
12,GGTAACACGTGCGAAG,0.24
13,CGTGTCACGTGGAAGT,0.12
14,ATTTTCACGTGGGGAC,0.35
15,TATAGCACGTGTGGTC,0.08
16,ACAATCACGTGGTGTG,-0.03
17,ACTGGCACGTGCGTGA,0.03
18,TTCGTCACGTGTATAT,0.12
19,GTGGGCACGTGGACGT,-0.09
20,TTGTCCACGTGGTACT,0.03
21,TTTTACACGTGTTCAG,0.21
